# Experimental data published in paper PMC4336329 (PLoS ONE, 2015).
# Among all 310,000 compounds or so, about 14,000 (4.5%) showed an effect of 50% or more. The effect is printed as a negative number. The list shows a part of the results.
# Target: human ether-à-go-go-related gene (hERG) potassium channel (human, UniProt Q12809)
# Test: primary screen, population patch clamp on CHO cells stably expressing hERG
# 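Also: peak tail current of the secondary pulse compared with the same well before compound.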
# human ether-à-go-go-related gene (hERG) potassium channel, sequence (Q12809 whole entry, looked up): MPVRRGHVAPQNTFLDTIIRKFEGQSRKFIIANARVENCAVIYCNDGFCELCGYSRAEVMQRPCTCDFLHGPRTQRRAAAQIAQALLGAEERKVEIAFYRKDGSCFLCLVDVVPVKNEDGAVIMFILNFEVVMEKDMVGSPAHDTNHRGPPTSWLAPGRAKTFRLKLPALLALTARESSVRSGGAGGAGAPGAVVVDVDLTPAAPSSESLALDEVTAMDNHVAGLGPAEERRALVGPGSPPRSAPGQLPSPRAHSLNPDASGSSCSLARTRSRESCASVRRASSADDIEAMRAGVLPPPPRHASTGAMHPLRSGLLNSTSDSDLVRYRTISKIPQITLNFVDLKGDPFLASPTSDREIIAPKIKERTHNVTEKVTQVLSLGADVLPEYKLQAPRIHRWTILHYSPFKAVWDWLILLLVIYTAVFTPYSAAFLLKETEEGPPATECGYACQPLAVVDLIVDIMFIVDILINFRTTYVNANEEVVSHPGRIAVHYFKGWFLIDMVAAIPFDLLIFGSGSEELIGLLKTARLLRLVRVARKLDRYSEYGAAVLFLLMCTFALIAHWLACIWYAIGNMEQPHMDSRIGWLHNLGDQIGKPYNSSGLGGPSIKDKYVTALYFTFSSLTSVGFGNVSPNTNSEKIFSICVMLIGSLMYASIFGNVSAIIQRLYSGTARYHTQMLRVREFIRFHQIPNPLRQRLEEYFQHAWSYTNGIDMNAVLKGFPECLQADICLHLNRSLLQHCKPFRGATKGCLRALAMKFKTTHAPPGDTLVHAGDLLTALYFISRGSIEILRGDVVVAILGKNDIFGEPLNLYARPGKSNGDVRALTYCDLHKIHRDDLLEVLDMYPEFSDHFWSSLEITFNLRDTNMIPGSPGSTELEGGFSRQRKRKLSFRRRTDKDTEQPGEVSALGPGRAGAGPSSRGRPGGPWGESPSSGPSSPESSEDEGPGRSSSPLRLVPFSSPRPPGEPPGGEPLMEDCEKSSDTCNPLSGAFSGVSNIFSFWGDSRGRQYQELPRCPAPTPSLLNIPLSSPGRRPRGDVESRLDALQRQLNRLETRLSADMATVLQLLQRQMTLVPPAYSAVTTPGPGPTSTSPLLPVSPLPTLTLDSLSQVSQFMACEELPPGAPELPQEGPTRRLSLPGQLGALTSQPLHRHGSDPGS
row,Compound,"hERG current change (%, negative = inhibition) at 10uM"
1,Cc1c(F)cccc1NS(=O)(=O)c1ccc2c(c1)c(=O)n(C)c(=O)n2C,3.8%
2,COc1ccc(-c2cnnc(N/N=C/c3c(C)nn(-c4ccccc4)c3Cl)n2)cc1,4.22%
3,COc1cccc(NC(=O)CSc2nc3ccccc3c(=O)n2CCCC(=O)N2CCCC2)c1,-67.3%
4,Cc1cc(C)n2nc(SCC3COc4ccccc4O3)nc2n1 (stereo not drawn),-44%
5,Cc1ccc(N(Cc2ccccc2)C(=O)c2cc(S(=O)(=O)N3CCOCC3)ccc2C)cc1,-27.4%
6,CC(=O)Nc1nc2ccccc2n1CCN(C)C,-6.46%
7,O=C(Nc1ccc2[nH]c(=S)sc2c1)c1ccccc1,8.9%
8,COC(=O)c1c(-c2ccccc2)csc1N,-3.09%
9,COc1cccc(C(=O)NCC(=O)N2CCC3(CC2)NCCc2[nH]cnc23)c1,-5.51%
10,CS(=O)(=O)N(CC(=O)N/N=C/c1ccccn1)c1ccc(Oc2ccccc2)cc1,-34.7%
11,c1ccc(-c2nc3ccccc3nc2-c2ccccn2)nc1,3.64%
12,COC(=O)C1C(=O)c2c(C)noc2CC1(C)C (stereo not drawn),25.2%
13,CC(C)c1ccc(/C=C2\NC(=O)NC2=O)cc1,5.2%
14,Cc1cccc(C)c1NC(=O)CN(C)C(=O)c1cc(S(=O)(=O)N(C)C)ccc1N1CCCC1,14.9%
15,CCOc1ccc(S(=O)(=O)Nc2cc(OC)c(OC)cc2C(=O)O)cc1,3.94%
16,CCN(CC)S(=O)(=O)c1ccc(N2CCOCC2)c(NC(=O)C2CCCC2)c1,-1.03%
17,CC1(NC(=O)c2cc(-c3cccs3)nn2-c2ccccc2)CCS(=O)(=O)C1 (stereo not drawn),-11.9%
18,CCN(CC)C(=O)c1cn(C)c2ccc(S(=O)(=O)N(CC)CC)cc2c1=O,1.84%
19,O=C1CCc2cc(S(=O)(=O)N3CCCCC3)cc3c2N1CCC3,2.3%
20,COC(=O)[C@]1(Cc2ccccc2)N[C@H](c2ccc(-c3ccc(Cl)c(Cl)c3)cc2)[C@@H]2C(=O)N(C)C(=O)[C@@H]21.O=C(O)C(F)(F)F,16.3%
21,Cc1cc(S(=O)(=O)Nc2ccc(C(=O)NCCCn3ccnc3)cc2)ccc1F,8.81%
22,COC(=O)c1c(SCc2ccc(C#N)cc2)nc(=O)[nH]c1C,-76.9%

row,Compound,"hERG current change (%, negative = inhibition) at 10uM"
1,Cc1cc(OC(=O)c2ccc(S(=O)(=O)N(C)C)cc2)cc(=O)o1,2.13%
2,O=C(Cc1ccccc1)NC(NC(=S)Nc1cc(Cl)ccc1Cl)C(Cl)(Cl)Cl (stereo not drawn),17.2%
3,Nc1nc2n(n1)C(c1ccccc1Cl)CC(c1ccc(F)cc1)N2 (stereo not drawn),-25.1%
4,CCc1ccc(CN2CCCC(CNC(=O)c3cccc(OC)c3OC)C2)cc1 (stereo not drawn),-54.1%
5,CC(=O)Nc1ccc(CCc2nc3ccccc3[nH]2)cc1,8.89%
6,COc1ccc(CCNCc2ccncc2)cc1.O=C(O)C(=O)O,-13.7%
7,COc1ccc(O)c(-c2cc(-c3ccc(F)cc3)n[nH]2)c1,-0.00292%
8,CCOc1cc(CO)cc(Br)c1OCC(=O)Nc1ccccc1C,-8.23%
9,O=C(Cn1c(=S)[nH]c2ccccc2c1=O)N1CCN(c2ccc(F)cc2)CC1,2.95%
10,CCc1ccc(NC(=O)c2cc(S(=O)(=O)N3CCc4ccccc43)cn2C)cc1,2.37%
11,CN(CC(=O)Nc1c(Cl)cccc1Cl)C(=O)CNC(=O)C1CCCCC1,29.9%
12,COC(=O)C1=C(c2cc3ccccc3s2)C[C@@H]2CC[C@H]1N2C(=O)NCc1ccc(C(F)(F)F)cc1,-8.39%
13,CCn1cc(C(=O)Nc2cc(C)ccc2C)c(=O)c2ccc(C)nc21,7.54%
14,CCO.Cc1nn(-c2ccccn2)c2c1C(c1ccsc1)C1=C(CCCC1=O)N2 (stereo not drawn),-16.1%
15,CCOC(=O)c1ccc(NC(=O)CCC2COc3ccccc3O2)cc1 (stereo not drawn),-0.575%
16,COCCn1c(-c2ccccc2)nc2ccccc21,-2.7%
17,Cc1ccc(S(=O)(=O)N(C)CC(=O)N2CCCc3ccccc32)cc1,-16.1%
18,CC(C)(C)NC(=O)CSc1nc(Cc2ccccc2)nc2ccccc12,-8.25%
19,CCC(NC(=O)Nc1ncccc1C)(C(F)(F)F)C(F)(F)F,-3.33%
20,CN(C)c1oc(-c2ccc(OCc3ccccc3)cc2)nc1C#N,14.7%
21,COc1cccc(C(=O)NCCNC(=O)c2cnccn2)c1,19.5%
22,COCCCn1c(C)nnc1SCC(=O)NCc1ccco1,16.8%

row,Compound,"hERG current change (%, negative = inhibition) at 10uM"
1,NC(=O)CC[C@@H]1NC(=O)[C@H](CO)NC(=O)c2cc([N+](=O)[O-])cc(I)c2NCC[C@@H](C(N)=O)NC1=O,10.9%
2,O=c1[nH][nH]c(-c2ccccc2)c1C=Nc1ccc(OC(F)(F)F)cc1,-28%
3,CC1CCCC(C)N1C(=O)CSc1nnc(-c2cccs2)o1 (stereo not drawn),-17.1%
4,CCOC(=O)c1c(C)nc2c(c1-c1ccccc1)C(=O)c1ccccc1-2,-19.8%
5,CCOc1cc(/C=N/Nc2nncc(-c3ccccc3)n2)ccc1O,14.4%
6,Cc1ccc(N2C(N)=NC(N)=NC23CCCC3)c(C)c1.Cl,9.39%
7,C=CCn1nnnc1SCC(=O)Nc1ccc(C(=O)OC)cc1,2.41%
8,CC1=CC(C)(C)N(C(=O)Nc2ccccc2)c2ccccc21,0.993%
9,CCCCCc1ccc(OCCCC[n+]2ccc(C)cc2)c(CCCCC)c1.[Cl-],-77%
10,CSc1nc(=S)c2[nH]c(=S)[nH]c2[nH]1,19.7%
11,COc1ccccc1-c1oc2ccccc2c1C#CC1(N)CCCCC1,-3.74%
12,O=c1c2ccccc2c(C=Nc2ccc(O)cc2)c(O)n1-c1nccs1,3.26%
13,Cc1nnc(C)n1/N=C/c1ccc(-c2ccccc2)cc1,-23%
14,COc1cc2c(c(OC)c1OC)-c1c(cc3c(c1OC)OCO3)[C@@H](OC(C)=O)[C@H](C)[C@H](C)C2,-66.8%
15,COc1ccccc1C(=O)NNC(=O)c1cccc(Cl)c1,2.83%
16,COCCNC(=O)C1CC2Cn3c(nc4ccccc43)C2N1C (stereo not drawn),11.2%
17,Cc1ccc(-c2nnn(CC(=O)N3C(C)CCCC3C)n2)cc1 (stereo not drawn),12%
18,COCCN(CCOC)C(=O)CN1C(=O)NC(Cc2c[nH]c3ccccc23)C1=O (stereo not drawn),3.92%
19,O=C(O)/C=C/c1cccc(NC(=O)Nc2ccc([N+](=O)[O-])cc2)c1,14.1%
20,CCCn1c(-c2ccc(OC)cc2)nc2nc3ccccc3nc21,-2.75%
21,FC(F)Oc1ccc(-n2cc(-c3ccccc3)[n+]3c2CCCCC3)cc1.[Br-],-55.6%
22,O=C(c1cccc(C(F)(F)F)c1)C1CCCN(C(=O)CCc2cnccn2)C1 (stereo not drawn),-15.6%

row,Compound,"hERG current change (%, negative = inhibition) at 10uM"
1,CN1CCN(C(=O)Cn2ncc3c([nH]c4ccccc43)c2=O)CC1,0.784%
2,Cc1ccccc1NC(=O)c1ccc2nc(N3CCOCC3)sc2c1,-24.6%
3,Cc1cc(=O)nc2c3ccccc3n(CC(=O)NCCCN3CCCC3=O)n12,9.15%
4,CN(C)CCCN(C(=O)COc1ccc(Cl)cc1)c1nc2cc3c(cc2s1)OCCO3.Cl,-55%
5,COc1ccccc1/C=C(\NC(=O)c1ccccc1)C(=O)NCc1ccco1,5.22%
6,COc1ccc2c(c1)C1(Nc3ccccc3C(=O)N1c1ccccc1)C(=O)N2 (stereo not drawn),-8.68%
7,CCN(CC(=O)NCc1cccs1)C(=O)/C=C/c1cccc(Br)c1,-66.8%
8,Cc1csc(SCC(=O)NCCc2ccc(Cl)cc2Cl)n1,-39.7%
9,COc1ccc(C2SCC(=O)N2CCc2ccc(OC)c(OC)c2)cc1 (stereo not drawn),-31.3%
10,O=C(CSc1nc(NS(=O)(=O)c2ccccc2)cc(=O)[nH]1)Nc1ccccc1C(F)(F)F,9.04%
11,O=C(CCC(=O)N1CCN(S(=O)(=O)c2ccccc2)CC1)NC1CCCc2ccccc21 (stereo not drawn),-13.5%
12,Cc1ccc(Nc2nc(N)nc(CCl)n2)c(C)c1,16.1%
13,Cc1cc(=O)oc2cc(OC(C(=O)O)c3ccccc3)ccc12 (stereo not drawn),29.1%
14,NC(=[NH2+])SCc1nc2ccccc2c(=O)n1-c1ccccc1.[Br-],-11.9%
15,Cn1c(=O)c2c(nc(NCCNC(=O)c3ccco3)n2Cc2ccc(Cl)cc2Cl)n(C)c1=O,6.53%
16,O=C(NCc1nc(-c2ccc(Cl)cc2)no1)c1ccc2c(c1)OCO2,1.47%
17,Cc1cc(C(=O)COc2ccccc2C#N)c(C)n1C1CC1,12.4%
18,O=C(O)C(O)c1ccccc1 (stereo not drawn),1.14%
19,CCOC(=O)C1(CCc2ccccc2)CCN(C(=O)[C@@H]2C[C@@H](C)NC(=S)N2)CC1,6.08%
20,O=C(CCNC(=O)c1ccco1)NC(Cc1c[nH]c2ccccc12)C(=O)O (stereo not drawn),9.64%
21,Cc1ccc(S(=O)(=O)NCCSc2ncccn2)cc1,20.6%
